Test results reported in the supplement of paper PMC4166925.
± gives the standard deviation of the averaged measurements. The full ranking holds about 33,000 sequences; the median of “E-score (dimensionless, -0.5 to 0.5)” is about -0.046, and the highest 2% start at about 0.36. Some of the results follow.

Each sequence was assayed on T1, SpTbr T-box DNA-binding domain (GST fusion) (assay: PBM E-score of 8-mer (E-score (dimensionless, -0.5 to 0.5)); Tbr is Tbrain of the sea star Patiria miniata (Pm) or the sea urchin Strongylocentrotus purpuratus (Sp); higher = stronger binding preference; most listed sequences are background and not binding sites). Conditions: the construct has about 5 more residues each side.
T1 sequence: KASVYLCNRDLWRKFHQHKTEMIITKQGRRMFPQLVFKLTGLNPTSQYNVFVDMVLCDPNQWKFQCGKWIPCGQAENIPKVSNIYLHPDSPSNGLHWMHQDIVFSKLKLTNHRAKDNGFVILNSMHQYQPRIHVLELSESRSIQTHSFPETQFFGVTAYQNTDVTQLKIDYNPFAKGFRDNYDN
Outline: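 Primer extension turned Universal Agilent oligonucleotide arrays double-stranded. They were incubated with 200 nM protein in PBS (pH 7.5); the protein was a GST-fused Tbr T-box DNA-binding domain expressed in BL21 E. coli at 20 °C and purified on glutathione. Every ungapped 8-mer was scored from the scanned, quantified probe intensities, and the Universal PBM Analysis Suite gave each an enrichment E-score averaged over duplicate arrays.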

| Sequence | PBM E-score of 8-mer |
| --- | --- |
| ACTCGCGC | 0.298 ± 0.038 |
| AGATCAGC | 0.0416 ± 0.092 |
| CCATTACC | -0.184 ± 0.091 |
| CACGGCCG | 0.165 ± 0.057 |
| GATTTTGA | -0.0555 ± 0.0057 |
| AATTTATG | -0.0572 ± 0.025 |
| AGGACGAC | -0.21 ± 0.028 |
| CATACGCA | 0.0761 ± 0.044 |
| GTTGATGA | 0.0475 ± 0.034 |
| TATATAAA | -0.113 ± 0.026 |
| ACCTCACC | 0.224 ± 0.017 |
| CATTCTCA | 0.232 ± 0.034 |
| ACTCATGA | -0.0749 ± 0.082 |
| CCAATGGG | -0.126 ± 0.033 |
| TATAATAA | -0.141 ± 0.015 |
| AGACCTTA | -0.113 ± 0.019 |
| AGATTACG | -0.0672 ± 0.067 |
| TTTCCAAA | -0.194 ± 0.025 |
| ATCTATCG | -0.0383 ± 0.0026 |
| ACGGAGCT | -0.0501 ± 0.075 |
| ATTTTCTG | -0.222 ± 0.082 |
| AAGCCCCA | -0.0812 ± 0.065 |

| Sequence | PBM E-score of 8-mer |
| --- | --- |
| ATAACTGC | 0.0244 ± 0.03 |
| AGCAAGTC | 0.0127 ± 0.025 |
| CGGACTGA | -0.212 ± 0.02 |
| GTAACACA | 0.341 ± 0.024 |
| AACAGTAG | 0.008 ± 0.013 |
| CGCCCCTA | -0.104 ± 0.031 |
| CAAGAGAA | -0.083 ± 0.044 |
| ACGACGTC | -0.0113 ± 0.0044 |
| CGTACTGA | -0.163 ± 0.049 |
| GGACTAAA | -0.159 ± 0.03 |
| CGATCGGC | 0.0733 ± 0.1 |
| AAAGTCGC | 0.158 ± 0.019 |
| AATCAGAG | -0.264 ± 0.02 |
| ATGGGCAG | -0.0503 ± 0.058 |
| CCCGAAGA | -0.173 ± 0.0047 |
| CCAAACGA | 0.13 ± 0.072 |
| GCGAGAAC | 0.393 ± 0.0087 |
| TACGGCCA | -0.189 ± 0.0022 |
| GCATCCGA | -0.0905 ± 0.024 |
| AGTCGACC | -0.199 ± 0.057 |
| ACAGCACA | 0.029 ± 0.027 |
| GCCCCGCA | 0.0578 ± 0.054 |

| Sequence | PBM E-score of 8-mer |
| --- | --- |
| CGGCTTTA | 0.0387 ± 0.0081 |
| ACTTAGCT | -0.0966 ± 0.021 |
| ATCTGTAA | 0.0195 ± 0.0086 |
| AACTAACG | 0.158 ± 0.027 |
| ACCTGTCT | 0.104 ± 0.0037 |
| GCCTAGGA | -0.192 ± 0.041 |
| CAATTGAG | -0.2 ± 0.036 |
| CTGCTTGC | -0.0876 ± 0.043 |
| ACACCCCG | 0.35 ± 0.018 |
| GCTAAGTA | -0.246 ± 0.022 |
| CCTTTGCA | -0.0392 ± 0.0034 |
| AGCTGACA | 0.231 ± 0.025 |
| AGCGGCCT | 0.107 ± 0.026 |
| CCGTATTC | -0.0201 ± 0.057 |
| ACGCTCGA | -0.118 ± 0.0043 |
| AGTTGTAG | -0.065 ± 0.011 |
| GCTGCGCA | 0.0486 ± 0.034 |
| ACAAGGGA | -0.0276 ± 0.021 |
| AGTAAGAG | -0.113 ± 0.0043 |
| CACACCGC | 0.332 ± 0.037 |
| AACATAGG | -0.0811 ± 0.042 |
| TAAACTGA | -0.106 ± 0.099 |

| Sequence | PBM E-score of 8-mer |
| --- | --- |
| GCGTCACA | 0.319 ± 0.0097 |
| ACGTCGGC | 0.00047 ± 0.061 |
| CCTCCAAA | -0.22 ± 0.039 |
| ACCGCACA | 0.109 ± 0.024 |
| ACCTATTC | 0.0131 ± 0.033 |
| AAAGGCTA | -0.261 ± 0.033 |
| GATTCTAA | -0.0979 ± 0.063 |
| GTCATTGA | -0.0674 ± 0.031 |
| AAATCGGA | -0.19 ± 0.051 |
| AAGTCCGG | -0.223 ± 0.034 |
| AATTAAAT | -0.214 ± 0.15 |
| CAGCCGAG | -0.102 ± 0.036 |
| CCATTTCC | -0.0935 ± 0.076 |
| GCGTTTTA | 0.0124 ± 0.084 |
| CACGATAC | 0.127 ± 0.019 |
| TCACGCCA | 0.403 ± 0.0053 |
| GTCCAAGA | -0.229 ± 0.019 |
| AATAATAA | -0.191 ± 0.01 |
| AGACTCCA | -0.352 ± 0.027 |
| AAGTACCA | -0.207 ± 0.029 |
